# Measured values from the RNAGym collection of RNA variant scans (doi:10.7554/elife.90254).
# The source gives no read counts; variants with many changes may rest on few reads.
# B1: LINE1-mini (parent)
# chain: GGCAGAGCUCAACACAGCGUGGCAAAGUGGCUGUGGCUAGACUGCC
# Variants of: B1
# Assay: self-cleavage, relative activity (ratio to wild type); higher = more cleavage; in vitro, sequencing; the parent is a self-cleaving ribozyme
row,Variant,self-cleavage
1,A4C U9A C18U C45A,0.02
2,A4C U9A G17U,0.15
3,A4C U9A G19A U28G,0.07
4,A4C U9A G29U,1.99
5,A4C U9A G30C U38A A41C,0.37
6,A4C U9A U28C C37G,0.56
7,A4C U9C A11C A12C G29U,0.01
8,A4C U9C A12C G19A G27U,0.01
9,A4C U9C C10A A16C U20A G22U U32C,0.02
10,A4C U9C C15U C42A U43C,0.23
11,A4C U9C C18A U32C,0.02
12,A4C U9C C23A C46G,0.1
13,A4C U9C G22A A26C,0
14,A4C U9C U32G,0.03
15,A4C U9G C10U A25C G35A,0.02
16,A4C U9G C31G A39C,0.02
17,A4C U9G G36C,0.04
18,A4C U20A A39U C45U,0.04
19,A4C U20A C45G,0.02
20,A4C U20A G29U,0.02
21,A4C U20A U34C U38C,0.01
22,A4C U20C A24G G27U G29A G36A C37G,0.02
23,A4C U20C C23U A25U,0.02
24,A4C U20C G21C G33A C45U,0.12

row,Variant,self-cleavage
1,A4C U20G A26U U32A U34A G44A,0.01
2,A4C U20G C31A G33U G36C,0.06
3,A4C U20G G22U C37G U43C,0.01
4,A4C U20G G29U,0.05
5,A4C U20G U28A,0.04
6,A4C U28A G29C U43G,0.02
7,A4C U28A G44A,0.16
8,A4C U28A U38G,0.01
9,A4C U28G C37G,0.03
10,A4C U28G G35A C42G,0.09
11,A4C U28G G35A C42G C45U,0.05
12,A4C U28G U32C,0.04
13,A4C U32A A39C C46G,0.02
14,A4C U32A G36C,0.06
15,A4C U34C U38C,0.04
16,A4C U34G C37G,0.03
17,A4C U38A C42A,0.05
18,A4G A6C A12G,0.1
19,A4G A6C C8A G21A G22A G40U U43C,0.09
20,A4G A6C G21C G27U G36U,0.02
21,A4G A6G A11C G19A,0
22,A4G A6G C18A G19C A26U G30C G44U,0.06
23,A4G A6G G22C,0.09
24,A4G A6G G30C U34G U38A,0

row,Variant,self-cleavage
1,A4G A6U C8G C13U C18U,0.02
2,A4G A6U C8G G22U G27A,0.02
3,A4G A6U C10U G36A,0.05
4,A4G A6U G7A U20A G30A C37A,0.14
5,A4G A6U G17U,0.17
6,A4G A6U U9A,0.03
7,A4G A11C C13U G17A A41C,0.02
8,A4G A11C C18G A25C G40C,0.04
9,A4G A11C C18G A25U G30U U38C C42G,0.01
10,A4G A11C C18G G44C,0.03
11,A4G A11C C18U,0
12,A4G A11C C18U G22C,0.03
13,A4G A11C C31U C45A,0.02
14,A4G A11C U32A G44U,0.03
15,A4G A11G A12U C23A C45A,0.01
16,A4G A11G A12U G21C,0
17,A4G A11G A12U G21C G29A,0.03
18,A4G A11G C23U,0.01
19,A4G A11G G33C,0.01
20,A4G A11G G33U,0.07
21,A4G A11U A12C C18A U20C G40A,0
22,A4G A11U A16C G22A U32A G36U,0.02
23,A4G A11U C13A A14U U43C,0.02
24,A4G A11U C15U A39G,0.02

row,Variant,self-cleavage
1,A4G A11U C18U,0.05
2,A4G A11U C31A U32G C45U,0.02
3,A4G A11U C31U A41C,0.02
4,A4G A11U G21A,0.6
5,A4G A11U G35U C46G,0.02
6,A4G A11U U20G G36C,0.01
7,A4G A11U U34C,0
8,A4G A11U U38A,0.04
9,A4G A12C A16C G27U G35U,0.31
10,A4G A12C A41G,0.02
11,A4G A12C C13A G36U C45U,0.03
12,A4G A12C C37G,0
13,A4G A12C U38A,0.03
14,A4G A12G C31A C37U C46U,0.03
15,A4G A12G G22U G40U,0.22
16,A4G A12U G17U C31U U34C,0.2
17,A4G A12U G19C A39U G44U,0.03
18,A4G A12U G40C,0.07
19,A4G A12U U34G,0.04
20,A4G A14C C18A,0.07
21,A4G A14C C18G G22C,0.02
22,A4G A14C G21U G35A,0.13
23,A4G A14C G35U G40C,0.04
24,A4G A14G C15A G19C,0.36

row,Variant,self-cleavage
1,A4G A14G C18U G27C C37U,0.48
2,A4G A14G G29U,0.12
3,A4G A14G G40A,0
4,A4G A14G U38C C46G,0.13
5,A4G A14U A24G A41U U43A,0.18
6,A4G A14U C37A U38G,0.02
7,A4G A14U G17U,0.01
8,A4G A14U U32C,0.35
9,A4G A16C A41U,0.01
10,A4G A16C C18A G21C G35A U38C,0.03
11,A4G A16C C18G G29U,0.17
12,A4G A16C G40C,0.02
13,A4G A16C U20G,0.01
14,A4G A16C U20G G29U U34C,0.44
15,A4G A16G A24C A26G,0
16,A4G A16G A25G C46A,0.02
17,A4G A16G A25U,0.02
18,A4G A16G G17C,0.21
19,A4G A16G G27A U28G G40U,0.02
20,A4G A16G G27C,0.04
21,A4G A16U G17A U20A,0.06
22,A4G A24C C46A,0.05
23,A4G A24C G27C G33C C46A,0.09
24,A4G A24C G27C U28G,0.09

row,Variant,self-cleavage
1,A4G A24C U34G,0.09
2,A4G A24C U38A,0.11
3,A4G A24U A41C,0.01
4,A4G A24U G27U C31A,0.11
5,A4G A24U G30U U43A,0.02
6,A4G A24U U28C G29U,0.2
7,A4G A24U U32C G36C A39G,0.06
8,A4G A25C G36U C46U,0.01
9,A4G A25G A39G,0.17
10,A4G A25G U34A,0.01
11,A4G A25U G27A,0.34
12,A4G A25U G44U,0.07
13,A4G A26G U32A,0.02
14,A4G A26G U43C,1.91
15,A4G A39C G40U,0.02
16,A4G A39U C42A,0.07
17,A4G C8A A12C G21A,0.02
18,A4G C8A A12G G30C U38A,0.03
19,A4G C8A A26C,0.44
20,A4G C8A C10G G33C C37A U38G G40C,0
21,A4G C8A C46A,0.15
22,A4G C8A G19A G27U G36A C45A,0.44
23,A4G C8A G21C U28C G40A C46G,0.04
24,A4G C8A G27A C42G,0.12

row,Variant,self-cleavage
1,A4G C8A G29A G33U,0.08
2,A4G C8G A12U C31A C45U,0.01
3,A4G C8G A16G G21A,0.02
4,A4G C8G A41U,0.2
5,A4G C8G C13G C18U G30U,0.03
6,A4G C8G C18G A26C G30C,0.01
7,A4G C8G C23U U43C,0.03
8,A4G C8G G17A U32A G33A U34G,0.03
9,A4G C8G G19C,0.03
10,A4G C8G G29A,0.04
11,A4G C8U A11G G22C,0.01
12,A4G C8U A12U U34G,0.03
13,A4G C8U A24C C37U,0.2
14,A4G C8U C10U A16U C18G C23G A24C U32A A39G,0
15,A4G C8U C18G G22C A25U,0.07
16,A4G C8U C18U,0.12
17,A4G C8U G19A G21U U32A,0.04
18,A4G C8U G19U U28C,0.07
19,A4G C8U G21C A39C,0.04
20,A4G C8U G21U C46A,0.08
21,A4G C8U U9A,0.27
22,A4G C8U U28G C45U,0.56
23,A4G C10A C13A,0.02
